Measurements reported in the supplement of paper PMC11417369.
± gives the standard deviation of the averaged measurements. The list shows a part of the results.

Each sequence was assayed on PfAP2-G AP2 domain (GST-tagged) (assay: gcPBM binding intensity (ln(normalized median fluorescence intensity)); higher = stronger DNA binding).
Outline: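 Alexa488 anti-GST antibody, scanned at 488 nm, detected GST-tagged P. falciparum DNA-binding domains that had been expressed in E. coli and incubated for 1 h on an Agilent 4 × 180k array. The array carried primer-extended double-stranded 36-bp intergenic genomic probes and negative controls. Binding intensity is the highest Masliner-normalised natural-log median intensity across replicate spots of either orientation of each probe.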

| Sequence | gcPBM binding intensity (ln) |
| --- | --- |
| TATAATATTTATATAACACACATATATATTTATTTA [CACACA_site280] | 9.73 ± 0.11 |
| CATAGAATAATTTATTGTACGTGCATGCTATTTTTT [XGTACX_site8984] | 11.3 ± 0.8 |
| TTATGAAATAGAATAACACACATATTTATATATGTG [CACACA_site2050] | 10 ± 0.13 |
| ATATATATATGTCAAAGTACTAAAAATATATACATA [XGTACX_site3397] | 10.7 ± 0.37 |
| TATTTTTTTAAAAATACACACATAAAATCATGAAAA [CACACA_site1085] | 10.18 ± 0.099 |
| TTTTTTTATATTTTTAGTACACATTGGTATATATAT [XGTACX_site4114] | 11.4 ± 0.83 |
| GTATTTTGCATAAATGCATGTAAATATATACCTACC [TGCATGCA_site957] | 10.1 ± 0.23 |
| TATTTGGGTATTTTTACACACATTAAAATATATATA [CACACA_site5800] | 9.96 ± 0.23 |
| TTTTCTTTCTTGTTTCGTATATTATAAAAAAAAAAG [CACACA_negctrl_site854] | 10.2 ± 0.4 |
| TTAATATTTGTTCTGATCCTTTTATTCAACTTTTTT [CACACA_negctrl_site536] | 9.955 ± 0.007 |
| TGGTAATACCCATACACACACACATACACATATATA [CACACA_site8877] | 10.3 ± 0.2 |
| CAGTTGTTAATTTGTGTGCACCAAATATTATACATA | 10.7 ± 0.55 |
| ACATATGAATATAATACACACTTGTATTCTTAATAT [CACACA_site5085] | 10 ± 0.085 |
| ATAATTCCATAAAATAGACACACGAATGTATAATAT [CACACA_site477] | 10 |
| TATTTGTAAAGACATGCATGGTACTTTTAAAACATA [TGCATGCA_site7] | 11 ± 0.73 |
| TGTAGATAAAATAAACGTACGTATTGATTTTTTTCA [XGTACX_site1610] | 11.2 ± 0.52 |
| TCTAATTTAAAATACACACACATATCTATAATATAT [CACACA_site7029] | 9.96 ± 0.12 |
| GTATAAAAATTTAGGAGTACAATATATTTATAATAT [XGTACX_site2127] | 11.6 ± 1.1 |
| TTTTTGTATTCTCCGGACTACATTATGTTGTAAATG [CACACA_negctrl_site691] | 10.4 ± 0.25 |
| GTAATAAAAAATTAATGTACTTTATATAATATATTA [XGTACX_site5935] | 11 ± 0.81 |
| ATATATATATATGTATGTACGTATGTATGTATGAAT [XGTACX_site4857] | 11.3 ± 0.84 |
| GGTACATACAAACACACACACAAAAAAAAAAAAATA [CACACA_site1577] | 10.2 ± 0.45 |
| TAATATATAAAAAGATGTACTTTTGCAAGTTCCTTT [XGTACX_site8519] | 11.1 ± 0.78 |

| Sequence | gcPBM binding intensity (ln) |
| --- | --- |
| GGACTTTATAAAAATGGTACACGCAATTCTATAATC [XGTACX_site6515] | 11 ± 0.65 |
| TATTGTATAAAAATAACATGCAATCCTTATACTGCT [TGCATGCA_site345] | 9.62 ± 0.25 |
| TGTACAGTAAATACAACACACATTTGTATAAATATA [CACACA_site4705] | 10.4 ± 0.078 |
| TATATATTATATTCATGTACGTAAAAATTTTGAATA [XGTACX_site6734] | 11.4 ± 1 |
| ATTTATTTTATAATATATAAATGATATATCTTATTA [CACACA_negctrl_site66] | 9.55 ± 0.099 |
| AATGACATTCTTACACGTACAAAATAAAAAATAAAA [XGTACX_site6932] | 11.3 ± 0.95 |
| TATGTTGTTTATTTAGTGCATATTTAAATATTATAA [GTGCAC_site9601] | 10.3 ± 0.3 |
| CCATATGATATATATTGTACATTATATATTATTTCT [XGTACX_site1697] | 10.7 ± 0.45 |
| ATATTATTATTAGTTTCACACATTTAATGAAACTAA [CACACA_site5677] | 10.1 ± 0.16 |
| TATAAATTATAAATTGCACACATATTTTTATATTTA [CACACA_site8974] | 9.82 ± 0.057 |
| TGAAATAACCCATGTGCATGCACTTCAATAACTGAA [TGCATGCA_site1041] | 10.1 ± 0.2 |
| TATAAATTAAAATCAGTGCATATTTTGAAAAACCTC | 9.985 ± 0.078 |
| TATATATATATATATTGTACATATTAATATTAGAAA [XGTACX_site8923] | 10.9 ± 0.62 |
| ATTACCATATAAAACACACAAACATACATACATACA [CACACA_site3729] | 10.5 ± 0.2 |
| TGGAGGTCAGTTCACAGTACCCAGAAACTCTACGAG [XGTACX_site2007] | 11.1 ± 0.76 |
| TATCATACCTTTTAATGTACACACATTTCTTTTTTG [XGTACX_site1655] | 11.4 ± 0.8 |
| TTACATGTAAAAGGTACACACATTAGATATACAAAT [CACACA_site6651] | 11.3 ± 0.84 |
| AATACTCAAAAGAATCGTACAAACAACACTCCCACG [XGTACX_site7564] | 11.1 ± 0.69 |
| TTTTACGTGAGTAATACACACATATAAGTTTATATA [CACACA_site4120] | 9.96 ± 0.16 |
| TATAACTTTTTTAATACACACAAATATTTATTTATA [CACACA_site7425] | 10.1 ± 0.21 |
| GGCATACACGAACACACACACACACGCACATATATA [CACACA_site6426] | 10.5 ± 0.45 |
| TACCACTTTCGAAGTAGTACATGGCTTTTTTTTTTT [XGTACX_site8379] | 11.5 ± 0.93 |
| TGTATGTTAAATACAACACACAAAAAAAAACAAGTT [CACACA_site4324] | 10.1 ± 0.11 |

| Sequence | gcPBM binding intensity (ln) |
| --- | --- |
| CACAGAAATATTCTTATACACACTGTTCTTATATTC [CACACA_site288] | 10.16 ± 0.028 |
| TAATATATATTATATACACACATATATATATATATA [CACACA_site428] | 10.2 ± 0.59 |
| TATACAGATAAATACACACACATATATATATATATA [CACACA_site4178] | 10.3 ± 0.46 |
| ATATATATATGTGTGTGTACATATGATTTCGCACTT [XGTACX_site4449] | 11.3 ± 0.76 |
| GTTATAATTTAGTCAAGTACATGCGTATGTATATTC [XGTACX_site3763] | 11 ± 0.74 |
| AAAGAAAGAAAACACACACACATATATATATATCAA [CACACA_site3743] | 9.85 ± 0.16 |
| TTTTTGTCTGCATACGCACACACGTGGACCATCTTA [CACACA_site8303] | 11.2 ± 0.8 |
| TATATATATATATGTACACACACACCGATAAATAAA [CACACA_site8041] | 11.6 ± 1.2 |
| ATATCATTATATAGTTGTACATATTTATTTATTTAT [XGTACX_site8995] | 11.5 ± 0.76 |
| AATATAGGAATATGCACACATATATACCTACATACA [CACACA_site4939] | 9.965 ± 0.049 |
| AAAAAAAAAAATACTAGTACGTAAAATTATATAAAT [XGTACX_site3019] | 11.2 ± 0.64 |
| CTATTTAAAATATGAACACACATTATTTGTTTTAGA [CACACA_site2713] | 9.855 ± 0.064 |
| ATTTCCCATACACGTTGTACAATGTAGAGAAAGTAT [XGTACX_site4586] | 11 ± 0.57 |
| GATATGTGTATAATATGTACATATATATATATATAT [XGTACX_site6531] | 11.3 ± 0.64 |
| TTTTGGTTAATTCCCCCCATTACATTATGTCATGTC [CACACA_negctrl_site229] | 11.2 ± 0.87 |
| ACATATATATATATATATTGATTTATTTATTTCCCT [CACACA_negctrl_site659] | 10.6 ± 0.34 |
| ATATATATATATAAATGTACAAAAATATATATGTAA [XGTACX_site4531] | 10.9 ± 0.49 |
| CTTCCTTAGGAATGTACACACATATAAAATATGTTG [CACACA_site6355] | 11.4 ± 0.84 |
| AAGAAAGAGTTCTGTTGTACAAAATATTAATATGTA [XGTACX_site7213] | 10.9 ± 0.28 |
| TAATACTTATATAAAGGTACACAATTTAACCGAATG [XGTACX_site7173] | 11.2 ± 0.54 |
| GTAAATATTCATATATGTACTTATGATATTTGCTAA [XGTACX_site6828] | 11.1 ± 0.69 |
| TTTATTAAGAAACACACACACACACCCAAAATAAAA [CACACA_site242] | 10.5 ± 0.44 |
| CTTTATTATAAGATTACACACATGTGTTCTAATTTA [CACACA_site7479] | 9.905 ± 0.007 |

| Sequence | gcPBM binding intensity (ln) |
| --- | --- |
| TATAAACAAAACAAAACATGCATAATACTATAAATT [TGCATGCA_site333] | 9.93 ± 0.13 |
| TAATTAACTTTATATGCATGTTAAAAATGTTATAAG [TGCATGCA_site761] | 9.685 ± 0.021 |
| AACAAAATAAAAAGTAATCTTATTTATTAAAATTTT [CACACA_negctrl_site419] | 9.63 ± 0.14 |
| TTTTTCTGTTTTTATAGCCTTCTCATAATACATAAA [TGCATGCA_negctrl_site355] | 10.2 ± 0.49 |
| GCTAATAATAAAAGCATAATGAACAAACACCCAGTA [CACACA_negctrl_site806] | 10.3 ± 0.19 |
| TTATATAACACGGGGAGGACACAAGAAATAAAGAGC [XGTACX_site2148] | 11.5 ± 0.95 |
| TTTATTCAAATATAATGTACTTTCTACAAATTCAAT [XGTACX_site8119] | 11 ± 0.76 |
| CATATATAAATATATACACACATATATATATATATA [CACACA_site1365] | 10.2 ± 0.69 |
| ATTTTTTTTGCTAAGTGTACACAAATGTTTATTAAT [XGTACX_site7440] | 11.7 ± 0.81 |
| TATACGCAGAAACACACACACAAAAAAAAAAAAAAA [CACACA_site427] | 9.87 ± 0.38 |
| TATAATAAATCGAACTGTACATATATATATATATAT [XGTACX_site7097] | 11.1 ± 0.57 |
| ATTCGGATCTATAAGTGTACACAATCTAGCGAAAAG [XGTACX_site3088] | 11.5 ± 0.83 |
| ATATTTTCCCTTTATAGGAGCACAAAAATTAAATGT [CACACA_negctrl_site1114] | 10.5 ± 0.3 |
| CAGATAAGATTTTGTGGTACTATTTATTAAATTAGA [XGTACX_site2644] | 11.1 ± 0.66 |
| AAATTTTTATAATTATCACACATTGAATTGTGGTCT [CACACA_site4343] | 10.23 ± 0.035 |
| AGCGTATAACATATGACACACACACCGACATACACA [CACACA_site8532] | 10.2 ± 0.2 |
| ATATATATATGGAAGTGTACTTATATAGCATACTAG [XGTACX_site5130] | 11.4 ± 0.69 |
| TACGTATCATAATTTTATTTTATATATATTCACAAA [XGTACX_negctrl_site144] | 10.1 ± 0.29 |
| ATTCACAAATATATGGTGCATAATATATATATATAT [GTGCAC_site9674] | 10.1 ± 0.28 |
| AACAATTATTGTAATGCATGCACTGAATATAGAAAG [TGCATGCA_site889] | 10.2 ± 0.18 |
